Measured values as given in PubChem BioAssay AID588855 (National Center for Advancing Translational Sciences (NCATS), 2011).
Among all 410,000 compounds or so, about 5,000 (1.2%) were called active. The shares of active, inactive and inconclusive entries below differ from those in the screen. Calls follow the shape of the dose curve; as a rule, active = well fitted inhibition curve with a large enough effect; inconclusive = small, poorly fitted or top-dose-only effect; inactive = no such curve, though single readings can be large or run the other way. Potencies of inconclusive entries are doubtful fits and often do not repeat.

Experiment: qHTS for Inhibitors of TGF-b; also: nearly all actives have a fitted effect of over 65% in size
Conditions: HepG2 CAGA-GFP TGF-b/SMAD3 reporter, GFP fluorescence, 18 h, TGF-beta stimulated, 500 pg/mL final; series mostly up to 46.1 µM; activity, negative = inhibition: at the top concentration
In short: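 Smad-responsive CAGA-GFP expression was quantified in HEPG2 cells exposed to compounds and 500 pg/mL final TGF-beta for 18 h at 37 degrees C; unstimulated wells defined full inhibition.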
% is scaled to controls: 0 for no effect and ±100 for the full control effect; potency is read from the fitted curve at half-maximal effect; tags tell the direction and shape of the fitted curve.

SMILES	Potency	activity, negative = inhibition
COc1ccccc1-c1noc(CCC(=O)N2CCN(c3cc(C)ccc3C)CC2)n1	inconclusive: 28.2 µM [inhibitor, single point]	
Cc1cc(-c2ccccc2)nc(N/N=C/c2ccccc2F)n1	inconclusive: 31.6 µM [inhibitor, partial curve, poor fit]	
COc1ccc(C(CC(=O)Nc2ccc(OC)c(OC)c2)N2Cc3ccccc3C2=O)cc1 (centres undefined)	inconclusive: 10 µM [inhibitor, partial curve, poor fit]	
CC(C)Nc1nc(NCCOc2ccccc2)c2sccc2n1	inconclusive: 35.5 µM [inhibitor, single point]	
COc1ccc(NC(=S)NNC(=O)CNc2ccc(Cl)cc2)cc1	inconclusive: 15.8 µM [inhibitor, single point]	
CC1(C(=O)Nc2cccc(C(F)(F)F)c2)Cc2c(-c3cccc(C(F)(F)F)c3)ccnc2O1 (centres undefined)	inconclusive: 11.2 µM [inhibitor, partial curve, poor fit]	
CN(C)S(=O)(=O)c1ccc(N2CCCC2)c(C(=O)Nc2nccs2)c1	inconclusive: 11.2 µM [inhibitor, partial curve, poor fit]	
COc1ccccc1CC(=O)c1ccc(OCc2ccccc2)cc1	inconclusive: 10 µM [inhibitor, partial curve, poor fit]	
Cc1ccc2[nH]c3c(N4CCc5ccccc5C4)ncnc3c2c1	inconclusive: 8.91 µM [inhibitor, partial curve, poor fit]	
COCc1ccc(C(=O)NC2CCCc3c2cnn3-c2cc(C)cc(C)c2)s1 (centres undefined)	inconclusive: 7.94 µM [inhibitor, partial curve, poor fit]	
Cc1cc(Nc2cnc3ccccc3n2)n(-c2ccccc2)n1	inconclusive: 35.5 µM [inhibitor, single point]	
CCn1c(SCC(=O)c2ccccc2)nc2sc3c(c2c1=O)CCN(C)C3		inactive: 15.3%
CCOC(=O)C1CCN(C(=O)c2ccc3c(c2)NC(=O)/C(=C\c2cccc(C)c2)S3)CC1		inactive: -11.7%
O=C(Nc1ccc2c(c1)oc1ccc(S(=O)(=O)N3CCCC3)cc12)C1CC1		inactive: -2.33%
CC(=O)N1CCN(C(=S)Nc2ccc(SC(F)F)cc2)CC1		inactive: 2.38%
N#Cc1ccccc1Sc1ccccc1C(=O)Nc1ccc2ccccc2c1		inactive: -13.1%
COc1ccc([N+](=O)[O-])c(OC)c1C(=O)NC(=O)Nc1c(C)cccc1C		inactive: -13.7%
CC1=CC(C)(C(Cl)(Cl)Cl)C(C)=CC1=NO (centres undefined)	inconclusive: 35.5 µM [inhibitor, single point]	
CCN1CCN(CCCNC(=O)c2cc3c(s2)-c2c(C)cccc2OC3)CC1	inconclusive: 20 µM [inhibitor, single point]	
CCOc1cccc(C2NC(=S)NC(C)=C2C(=O)Nc2ccccc2)c1 (centres undefined)	inconclusive: 17.8 µM [inhibitor, single point]	
O=C1CSC(c2ccccc2Br)N1c1ccc(Cl)cn1 (centres undefined)	inconclusive: 31.6 µM [inhibitor, single point]	
CN(C)CCCNC1=CC(=O)CC(c2ccccc2)C1 (centres undefined)	inconclusive: 5.62 µM [inhibitor, full curve, poor fit]	
Cc1cc(N(C)C)cc(C)c1/C=C/c1ccnc2ccccc12	inconclusive: 11.2 µM [inhibitor, partial curve, poor fit]	

SMILES	Potency	activity, negative = inhibition
CCOc1ccccc1CNC(=O)c1[nH]c2ccccc2c1Sc1ccccc1	inconclusive: 35.5 µM [inhibitor, single point]	
COc1cccc(CNC(=O)[C@@H](C)N2C(=O)N3CCc4c([nH]c5ccc(OC)cc45)C3(C)C2=O)c1 (some centres undefined)	inconclusive: 7.08 µM [inhibitor, partial curve]	
C/C(=N/NC(=O)CN1CCN(S(=O)(=O)c2ccc(C)cc2)CC1)c1cccc(O)c1		inactive: -2.85%
COCCN(C(=O)CSc1nnc2cc(C)c3ccccc3n12)c1c(N)n(Cc2ccccc2)c(=O)[nH]c1=O	inconclusive: 7.08 µM [inhibitor, full curve, poor fit]	
O=S(=O)(NCCOCC(F)(F)C(F)F)c1ccc2oc3ccccc3c2c1	inconclusive: 35.5 µM [inhibitor, single point]	
O=C(Nc1ccc(Cl)c([N+](=O)[O-])c1)C(Sc1ccccc1)c1ccccc1 (centres undefined)	inconclusive: 7.08 µM [inhibitor, partial curve, poor fit]	
Cc1ccc2nc(-c3ccccc3)cc(C(=O)O)c2c1	inconclusive: 35.5 µM [inhibitor, single point]	
COc1cnc(-c2ccccn2)nc1N(C)c1ccccc1	inconclusive: 7.08 µM [inhibitor, full curve, poor fit]	
CS(=O)(=O)Nc1ccccc1NS(C)(=O)=O		inactive: 4.73%
O=C(NC1CCS(=O)(=O)C1)c1ccc(N2CCCCC2)c([N+](=O)[O-])c1 (centres undefined)		inactive: -2.76%
CCOC(=O)c1sc(NC(=O)c2ccc(Br)o2)cc1C		inactive: 11%
COc1cc(C)nc(N2CCCC(C(=O)Nc3ccccc3Br)C2)n1 (centres undefined)		inactive: 9.06%
Cc1cc2cc(CN(Cc3cccs3)S(=O)(=O)c3ccc4c(c3)OCCO4)c(=O)[nH]c2cc1C	inconclusive: 2.82 µM [inhibitor, partial curve, poor fit]	
CC(C)(C)c1ccc(C(=O)N2CC(=O)Nc3ccc(F)cc3C2c2ccc(F)cc2)cc1 (centres undefined)	inconclusive: 14.1 µM [inhibitor, single point]	
CC(=O)Nc1ccc(S(=O)(=O)N(C)CC(=O)OCC(=O)N(CC(C)C)C2CCS(=O)(=O)C2)cc1 (centres undefined)		inactive: -10.3%
Cc1ccc(-c2csc(NC3OC(=O)c4ccccc43)n2)cc1 (centres undefined)	inconclusive: 12.6 µM [inhibitor, partial curve, poor fit]	
Cc1cccc(/C=C2/Sc3ccc(C(=O)NCCN4CCCC4)cc3NC2=O)c1	inconclusive: 35.5 µM [inhibitor, single point]	
CCCSc1nc2sc3c(c2c(=O)[nH]1)CCN(Cc1ccccc1)C3		inactive: 15.2%
CC1=CCC2C(=O)N(c3cccc(C(=O)NCc4ccccc4)c3)C(=O)C2C1 (centres undefined)		inactive: 0%
Cc1cc(C(=O)NNC(=O)c2ccc(Cl)c(S(N)(=O)=O)c2)c(C)o1		inactive: -7.65%
COc1ccc(CCNC(=O)CSc2nc(C)cs2)cc1	inconclusive: 6.31 µM [inhibitor, single point]	
COc1ccc(NC(=O)CN(c2ccc([N+](=O)[O-])cc2)S(=O)(=O)c2ccccc2)cc1	inconclusive: 35.5 µM [inhibitor, single point]	
COC(=O)C1=C(C)N(Cc2ccccc2)C(=S)N[C@H]1c1ccc(Br)cc1	active: 12.6 µM	

SMILES	Potency	activity, negative = inhibition
CN(Cc1ccccc1)C(=O)Cn1ncc2c3ccccc3n(Cc3cccc(Cl)c3)c2c1=O		inactive: -0.345%
Fc1ccc(-c2nc3ccc(Cl)cn3c2Cc2cccc(Cl)c2)cc1	inconclusive: 17.8 µM [inhibitor, single point]	
Cn1c2c(c(=O)n(C)c1=O)C1(C(=O)Nc3ccccc31)C(C#N)=C(N)O2 (centres undefined)		inactive: -18.1%
Cc1ccc(NC(=O)Cn2c(=O)c(C(F)(F)F)nc3ccccc32)c(C)c1	inconclusive: 6.31 µM [inhibitor, single point]	
CS(=O)(=O)N1CCc2cc(S(=O)(=O)Nc3ccc4oc5c(c4c3)CCCC5)ccc21	inconclusive: 22.4 µM [inhibitor, single point]	
Cc1ccc(N2CCN(C(=O)C3CCC(CNS(=O)(=O)c4ccc(Br)s4)CC3)CC2C)cc1 (centres undefined)		inactive: -29.3%
CN(C)c1nc(N)nc(Cn2nnc(-c3ccc(C(F)(F)F)cc3)n2)n1	inconclusive: 35.5 µM [inhibitor, partial curve, poor fit]	
COc1ccc2c(c1)c(C(=O)N/N=C/c1ccc(Cl)cc1)c(C)n2C		inactive: 0%
N#Cc1ccc(S(=O)(=O)N2CCN(C(=O)[C@@H]3CCCN3C(=O)c3cccs3)CC2)cc1		inactive: -0.29%
CCN(CC)CCN(C(=O)c1ccccc1OC)c1nc2ccc(F)cc2s1	inconclusive: 11.2 µM [inhibitor, partial curve, poor fit]	
COc1ccccc1N(C)S(=O)(=O)c1ccc(C(=O)NCC(C)C)cc1		inactive: 2.77%
Cc1ccc2nc(SCc3nc(-c4ccccc4C)no3)[nH]c2c1	inconclusive: 15.8 µM [inhibitor, single point]	
O=C1S/C(=C\c2ccc(O)c([N+](=O)[O-])c2)C(=O)N1c1ccccc1Cl	inconclusive: 12.6 µM [inhibitor, partial curve, poor fit]	
Cc1ccc(C(=O)CCNc2ccccc2)o1	inconclusive: 22.4 µM [inhibitor, partial curve, poor fit]	
CSc1nc(N(C)NC(=O)c2ccccc2)c2ccccc2n1		inactive: -7.32%
O=C(Nc1nc2cc3c(cc2s1)OCO3)C1=COCCO1		inactive: -3.5%
COc1ccc(-c2noc(-c3ccc4c(c3)OCO4)n2)cc1		inactive: -0.386%
O=[N+]([O-])c1cccc(/C=N/N2CCN(Cc3ccc(Cl)cc3)CC2)c1	inconclusive: 20 µM [inhibitor, partial curve, poor fit]	
CCOC(=O)CC1C(=O)NCCN1C(=S)NC(=O)c1ccc(C)c(Br)c1 (centres undefined)		inactive: -6.13%
CCCCCCCCNS(=O)(=O)CCNCc1ccccc1	inconclusive: 35.5 µM [inhibitor, single point]	
O=C(Cc1sc(Nc2ccccc2)nc1-c1ccccc1)NCc1ccccn1		inactive: 18.6%
CC1Cc2ccccc2N1C(=O)c1ccc(N2CCCCC2)c([N+](=O)[O-])c1 (centres undefined)	inconclusive: 20 µM [inhibitor, single point]	
CCCCN(C)C(=O)CN1C(=O)CCn2nc(-c3cn(C)c4ccccc34)cc21	inconclusive: 35.5 µM [inhibitor, single point]	
